{
  "source": "the supplement of paper PMC4723716",
  "note": "Over roughly 3,600 compounds, “viability index relative to DMSO control” has its median near 0.81; the lowest 2% begin near 0.13. Some of the results follow.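 Also: 384-well serum-free SaLSSA: MitoTracker Red CMXRos staining with saponin lysis, high-content imaging, treated-well particle count divided by plate-mean count of DMSO wells.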",
  "data": [
    {"test_system": "Plasmodium falciparum NF54 stage V gametocytes", "test": "viability index relative to DMSO control (fraction); higher = less gametocyte killing", "details": "1.25 µM, incubation time: 72 h", "values": [
      {"smiles": "COC(=O)C1=C(C)NC2=C(C(=O)CC(c3ccc(OC)c(OC)c3)C2)C1c1cccc(Cl)c1Cl", "note": "(stereo not drawn)", "viability index": 1.07},
      {"smiles": "CN(C)c1ccc(C=CC=Cc2cccc[n+]2C)cc1", "viability index": 0.855},
      {"smiles": "CN(C)c1cc[n+](Cc2ccccc2)cc1", "viability index": 0.959},
      {"smiles": "O=C(c1cccc(F)c1)N1CCN(Cc2ccncc2)CC1", "viability index": 0.95},
      {"smiles": "CCOC(=O)C(=O)N1c2ccc(OC)cc2-c2c(ssc2=S)C1(C)C", "viability index": 0.358},
      {"smiles": "OC(CNCc1ccccc1)Cn1c2ccc(Br)cc2c2cc(Br)ccc21", "note": "(stereo not drawn)", "viability index": 0.498},
      {"smiles": "COc1cccc(-c2ccc(O)c(CNCC3CC4C=CC3C43CC3)c2)n1", "note": "(stereo not drawn)", "viability index": 0.365},
      {"smiles": "O=S(=O)(c1ccc(Cl)cc1)N1CCN(C(=S)NCC2CCCO2)CC1", "note": "(stereo not drawn)", "viability index": 0.824},
      {"smiles": "Cn1c(-c2ccc([N+](=O)[O-])cc2)[n+](C)c2ccccc21", "viability index": 0.736},
      {"smiles": "COc1ccc(C2CC(=O)C3=C(C2)NC(C)=C(C(=O)OC(C)C)C3c2ccc([N+](=O)[O-])cc2)cc1OC", "note": "(stereo not drawn)", "viability index": 0.479},
      {"smiles": "Cc1cc(C)c(S(=O)(=O)N2CCCC2CNC(=O)c2cccc([N+](=O)[O-])c2)c(C)c1", "note": "(stereo not drawn)", "viability index": 1.1},
      {"smiles": "Cc1oc2c(c1C(=O)NC1CCS(=O)(=O)C1)C(=O)c1ccccc1C2=O", "note": "(stereo not drawn)", "viability index": 0.0502},
      {"smiles": "Cc1cc(C)nc(SCc2cc(=O)c(OC(=O)c3ccccc3Br)co2)n1", "viability index": 0.686},
      {"smiles": "CCCCNC(=S)N(Cc1cccs1)Cc1cc2cc(C)ccc2[nH]c1=O", "viability index": 0.837},
      {"smiles": "O=[N+]([O-])c1ccc(NN=Cc2cccs2)c(S(=O)(=O)N2CCCCCC2)c1", "viability index": 0.869},
      {"smiles": "CCCCCC(=O)N1c2ccccc2NC2=C(C(=O)CC(c3ccc(OC)c(OC)c3)C2)C1c1ccc(C(F)(F)F)cc1", "note": "(stereo not drawn)", "viability index": 0.475},
      {"smiles": "O=C1Nc2ccccc2C1=Nc1ccccc1NS(=O)(=O)c1ccc2ccccc2c1", "viability index": 0.804},
      {"smiles": "CC1CCN(S(=O)(=O)c2ccc(C(=O)Nc3sc4c(c3C(N)=O)CCN(C)C4)cc2)CC1", "viability index": 0.995},
      {"smiles": "CCCN1CCc2c(sc3nc(SCC(=O)OC)nc(N)c23)C1", "viability index": 0.937},
      {"smiles": "CC(NS(=O)(=O)c1ccccc1)C(c1cccs1)N1CCN(c2ccccc2F)CC1", "note": "(stereo not drawn)", "viability index": 0.909},
      {"smiles": "COc1ccc(S(=O)(=O)Nc2ccc(N3CCC(Cc4ccccc4)CC3)c(C(=O)NC(C)C)c2)cc1", "viability index": 0.565},
      {"smiles": "COc1ccc(N)cc1NC(=O)c1ccc(Cl)cc1Cl", "viability index": 0.875},
      {"smiles": "CCCCCCCCN[C@H](C)[C@@H](O)c1ccc(SC(C)C)cc1", "viability index": 0.841},
      {"smiles": "C=CCc1c(C)nc2ccc(Br)cc2c1O", "viability index": 0.536},
      {"smiles": "CC(C)(C)CC(C)(C)c1ccc(OCC(=O)NN=C2C(=O)Nc3ccccc32)c([N+](=O)[O-])c1", "viability index": 1},
      {"smiles": "CCOc1ccc2[nH]c(=O)c(CN(CCN(CC)CC)C(=S)NCCCN(CC)CC)cc2c1", "viability index": 0.534},
      {"smiles": "Cc1sc2nc3c4ccccc4c(NCCCN(C)C)nn3c(=O)c2c1C", "viability index": 0.711},
      {"smiles": "CCSc1ncnc2scc(-c3ccccc3)c12", "viability index": 0.922},
      {"smiles": "Cc1ccccc1OCCSc1nc2ccc(NC(=O)c3ccccc3)cc2s1", "viability index": 0.843},
      {"smiles": "COc1ccc(NC(=O)C=Cc2ccccc2Cl)cc1", "viability index": 0.525},
      {"smiles": "Cc1nnc(Nc2ccc(F)cc2)c2ccccc12", "viability index": 0.923},
      {"smiles": "O=C(CN1CCN(S(=O)(=O)c2cccc([N+](=O)[O-])c2)CC1)Nc1ccc(OCc2ccccc2)cc1", "viability index": 1.03},
      {"smiles": "CCn1c(SCC(=O)NCCc2ccccc2)nc2sc3c(c2c1=O)CCN(C)C3", "viability index": 0.857},
      {"smiles": "O=C(C=Cc1ccc(Br)cc1)NC(=O)c1ccccc1O", "viability index": 0.914},
      {"smiles": "COc1ccc(C=C2SC(=Nc3ccc(F)cc3)NC2=O)c(OC)c1", "viability index": 0.38},
      {"smiles": "CN(C)c1cc[n+](CC(=O)c2ccc(Cl)cc2)cc1", "viability index": 0.761},
      {"smiles": "CC(=Cc1sc2ccc3occc3c2[n+]1CCO)C=C1Sc2ccc3ccoc3c2N1CCO", "viability index": 0.577},
      {"smiles": "Cc1c(-c2ccccc2)c2ccccc2n1CCc1ccc(C)[n+](C)c1", "viability index": 0.901},
      {"smiles": "O=C(Nc1ccc(N2CCCCC2)cc1)c1cc2ccccc2o1", "viability index": 0.902},
      {"smiles": "Clc1ccc(CCNC2CCN(CCc3ccccc3)CC2)cc1", "viability index": 0.669},
      {"smiles": "O=C1CN(C(=O)CCC2CCCCC2)C(c2ccc(F)cc2)c2cc(F)ccc2N1", "note": "(stereo not drawn)", "viability index": 0.968},
      {"smiles": "COc1ccc(C(=O)C[n+]2cc(-c3ccc(OC)cc3)n3c2CCC3)cc1", "viability index": 1.19},
      {"smiles": "COCCN(Cc1cc2ccc(F)cc2nc1N1CCCCCC1)C(=O)c1ccoc1", "viability index": 1.28},
      {"smiles": "CCc1ccc2[nH]c(=O)c(CN(CCN(CC)CC)C(=S)NCCCN(C)C)cc2c1", "viability index": 0.935},
      {"smiles": "COC(=O)c1c(N)n(-c2ccccc2OC)c2nc3ccccc3nc12", "viability index": 0.808},
      {"smiles": "CCOc1ccc(C(=O)C(CCC(C[N+]2(C)CCCCCC2)C(=O)c2ccc(OCC)cc2)C[N+]2(C)CCCCCC2)cc1", "note": "(stereo not drawn)", "viability index": 0.837},
      {"smiles": "COc1ccc(C=Cc2ccc3ccccc3[n+]2C)cc1", "viability index": 0.456},
      {"smiles": "CC1=CC(=C(C#N)c2nc3ccccc3s2)C=C(C)N1CC1CCCO1", "note": "(stereo not drawn)", "viability index": 0.798},
      {"smiles": "COc1ccc(Nc2nc(NN=Cc3cccc([N+](=O)[O-])c3OC)nc(Nc3ccc([N+](=O)[O-])cc3)n2)cc1", "viability index": 0.469},
      {"smiles": "Cc1ccc(NC(=O)C2CC3c4ccccc4C2c2ccccc23)cc1", "note": "(stereo not drawn)", "viability index": 1.02},
      {"smiles": "COc1cccc(CNC(=O)Cn2ncc3c(=O)oc4ccc(C)cc4c32)c1", "viability index": 0.843},
      {"smiles": "O=[N+]([O-])c1ccc2nc(NC3CCCCC3)c(NC3CCCCC3)nc2c1", "viability index": 0.86},
      {"smiles": "Oc1c(C(Nc2ccccn2)c2ccc(Br)cc2)ccc2cccnc12", "note": "(stereo not drawn)", "viability index": 1.1},
      {"smiles": "O=C(Nc1ccc(-c2nc3ccccc3[nH]2)cc1)c1cccc(C(=O)Nc2ccc(-c3nc4ccccc4[nH]3)cc2)n1", "viability index": 0.0331},
      {"smiles": "O=C(O)C=CC(=O)N(C1CCCCC1)C1CCCCC1", "viability index": 0.982},
      {"smiles": "N#Cc1cccc(C=CC(=O)O)c1", "viability index": 1.01},
      {"smiles": "Cc1ccc(COc2ccc3c(C#N)c4ccccn4c3c2)cc1", "viability index": 0.325},
      {"smiles": "COC(=O)C1=C(C)NC2=C(C(=O)CC(c3ccc(OC)c(OC)c3)C2)C1c1ccc(Br)cc1", "note": "(stereo not drawn)", "viability index": 0.66}
    ]}
  ]
}
